± gives the standard deviation of the averaged measurements. The list shows a part of the results.
These sequences were tested on PfAP2-I AP2 domain 3 (GST-tagged) (assay: gcPBM binding intensity (ln(normalized median fluorescence intensity)); higher = stronger DNA binding).
Method in brief: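 The binding buffer was 1× PBS containing 1% milk, 0.2 mg/ml BSA, 0.5% salmon testes DNA and 0.03% Triton X-100. In it, GST-tagged P. falciparum DNA-binding domains expressed in E. coli were applied for 1 h to an Agilent 4 × 180k array of primer-extended double-stranded 36-bp intergenic genomic probes plus negative controls. Binding intensity, read with Alexa488 anti-GST antibody and a 488 nm scan, is the highest Masliner-normalised natural-log median intensity across replicate spots of either probe orientation.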

Sequence	gcPBM binding intensity (ln)
AAAGTTACATTCGACACACACATAACAACTAAATAA [CACACA_site3419]	7.87 ± 0.44
TTTATTTATTAATACACACACACACCCCCACAAAAT [CACACA_site240]	9.96 ± 0.2
TACATAAACATTTATACACACATTAGATATACATAT [CACACA_site6329]	7.79 ± 0.28
CTAAATAAAGTTAACACACACATAATATTTATATGT [CACACA_site6368]	7.65 ± 0.41
TCAAAGAGTAGAAAGGTGCTTATGAACGAGATAATT	8.93 ± 0.35
TTTTTTAAAAAACAAACACACACGTAGAAAAAAAAA [CACACA_site826]	8.29 ± 0.67
TAATTATATGGATACACACACATACATTTACATAAC [CACACA_site5744]	8.12 ± 0.39
ACTTATTTATTTTTAGTGCATTTAGTTTTATTTTAT	10.8 ± 0.26
TATAACTATAAAAGGAGTACTATATATATATATATA [XGTACX_site1388]	9.28 ± 0.42
TCTACAAAATTATCATGTACATATTATTATAATTAT [XGTACX_site6585]	7.88 ± 0.19
AATAGTACAAAAAAAAAAAAAAAAAAAAAAAAAAAA [CACACA_negctrl_site1376]	8.3 ± 0.72
TAAAAAGAAAAAAAGAGTACAAACAAAATAATAATT [XGTACX_site6071]	8.06 ± 0.68
TATTTGCAATGCAAATGTACATGAATTTTTTTAATG [XGTACX_site7474]	7.76 ± 0.33
AGTATACACAAACACACACACACAAAAAAAAAAAAA [CACACA_site8036]	8.01 ± 0.67
AAATATTTTTTAATGTGTACATAGAACATATATATA [XGTACX_site3136]	8.05 ± 0.54
ATAATATATATATTATGTACATATAAATTTTTTTTT [XGTACX_site5826]	7.51 ± 0.36
TATATACCTATATATACACACAAATACATAAGCTTC [CACACA_site1369]	7.58 ± 0.59
TACGTTATATACAACTGTACTTGGATAATTATTAAC [XGTACX_site5614]	7.93 ± 0.3
TACAAATTAATATGTACACACAAATATAAATATGTA [CACACA_site7016]	7.765 ± 0.064
TTTTCTTTTTTGAACTGTACGCGTAAATTTAAAAAG [XGTACX_site882]	7.97 ± 0.2
AAGTTTTTTTCTTTTTTTCTCTCTTTTTTTTTTTTT [XGTACX_negctrl_site613]	7.62 ± 0.7
GATATGATTAACTTATGTTATTCTTGATGATTACGT [CACACA_negctrl_site354]	7.41 ± 0.59

Sequence	gcPBM binding intensity (ln)
TTTTTTATTTATTGTTATACATCTTACTACTTATAA [GTGCAC_negctrl_site381]	7.93 ± 0.76
AATATATTTATATATAGTACTTTTATAATATCGTTT [XGTACX_site6658]	7.5 ± 0.42
AATACACATAATACATGTACTCACATTGTTATAACA [XGTACX_site4129]	8.04 ± 0.53
CTTTTTTTTTTAAATAGTACTTTCTCGTATACTCAT [XGTACX_site1842]	7.76 ± 0.78
TGTGAAATAAAATTTATACACACTTGCTAAATGATC [CACACA_site181]	8.15 ± 0.71
AAGAAAAATGTGTTTTTTTTTTTTTTTTTTTTCAAT [TGCATGCA_negctrl_site404]	7.36 ± 0.54
TTTTTTTATTTTTGTTGTACTTATAATTCTGTAAAA [XGTACX_site7344]	7.92 ± 0.64
TATAAATATAAATACACACACACACGCCAAAGCGTA [CACACA_site6181]	7.47 ± 0.4
TAATTAAATATTTCAGTGCATTATTTTATGATCCAT [GTGCAC_site9456]	11.2 ± 0.76
AGATGAACTAAAAAGGTGCTAAATATGTGACCACTG [GTGCAC_site9406]	10.7 ± 0.18
TTTTTTTTAGTATGAACACACATATAGATTATAAAA [CACACA_site7391]	7.75 ± 0.53
ATTTAGAATGTTCCTACACACCAAATTTAAGTGTGC [CACACA_site7161]	7.76 ± 0.69
TACATACACAGACACACACACATATAAATATAAATA [CACACA_site7641]	7.83 ± 0.33
ATAAGAAGAAGAAAAACACACATATGTAAATATATA [CACACA_site3138]	7.47 ± 0.8
ATATTATAGATATACACACACACATGCATGCACATA [CACACA_site6203]	9.01 ± 0.42
TATATATCTTTATGCACACACAAAGAAAATTTTCCT [CACACA_site7366]	10.4 ± 0.55
ATTAATTTAATTTGAATTATTTTATTATATTATTAT [XGTACX_negctrl_site10]	7.31 ± 0.42
GTTTGAATATATCAGGTGCATTTATAATTCATATGA	10.7 ± 0.35
TTATTATTAAAACACACACACAAAAAAAAAAAAAAA [CACACA_site1480]	8.15 ± 0.69
AAAAAAAAAAAAAAAACACACATGTATAATATAATA [CACACA_site2209]	8.65 ± 0.59
TACACCTGCACGATTGCACACAAATATGTTTTGAAG [CACACA_site8656]	9.48 ± 0.36
TATAGATGTGGTTTATGTACATACTATAAAAAATCA [XGTACX_site1400]	7.99 ± 0.44

From the supplement of paper PMC11417369
